Data from the supplement of paper PMC4967469.

Legend:
Experiment in all cases: Viability of human cancer cell lines after 72 h of drug (GDSC screen)
[1] = compound: O=C(/C=C/c1cccc(S(=O)(=O)Nc2ccccc2)c1)NO [Belinostat]; details: top dose 20 µM; top dose inferred
Description: (§1)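 Human cancer cell lines in 384-well plates, medium with 10% serum, drug for 72 h over a 256-fold dose range (nine 2-fold or five 4-fold steps up to the top dose). Adherent lines were fixed and stained with the nucleic acid dye Syto60, suspension lines read with resazurin; signal relative to control wells, capped at 0 and 100%. One two-parameter sigmoid per drug and line, fitted in a mixed model over all curves with the slope shared within a line.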

[2] = compound: C[C@]1(O)C[C@@H](c2nc(-c3ccc4ccc(-c5ccccc5)nc4c3)c3c(N)nccn32)C1 [OSI-906]; details: top dose 2.56 µM; top dose inferred
Description: as §1

[3] = compound: c1ccc2c(CCNc3ccc(Nc4ccncc4)cc3)c[nH]c2c1 [JNJ-26854165]; details: top dose 10 µM
Description: as §1

[4] = compound: CC1(C)CNc2cc(NC(=O)c3cccnc3NCc3ccncc3)ccc21 [AMG-706]; details: top dose 2 µM; top dose inferred
Description: as §1

[5] = compound: Cc1ccc(C(=O)N(CCCN)[C@@H](c2nc3cc(Cl)ccc3c(=O)n2Cc2ccccc2)C(C)C)cc1 [SB-715992]; details: top dose 0.128 µM; top dose inferred
Description: as §1

[6] = compound: Cc1sc2c(c1C)C(c1ccc(Cl)cc1)=N[C@@H](CC(=O)OC(C)(C)C)c1nnc(C)n1-2 [JQ1]
Description: as §1

[7] = compound: COC(=O)[C@H](CCSC)NC(=O)c1ccc(NC[C@@H](N)CS)cc1-c1ccccc1 [FTI-277]; details: top dose 1.024 µM; top dose inferred
Description: as §1

[8] = compound: CN1CCN(c2ccc([N+](=O)[O-])c3no[n+]([O-])c23)CC1 [NSC-207895]; details: top dose 20 µM; top dose inferred
Description: as §1

[9] = compound: CCOc1nc(NC(=O)Cc2cc(OC)ccc2OC)cc(N)c1C#N [JNK Inhibitor VIII]; details: top dose 10 µM; top dose inferred
Description: as §1

[10] = compound: COCC[n+]1c2c(n(Cc3cnccn3)c1C)C(=O)c1ccccc1C2=O [YM155]; details: top dose 5.12 µM
Description: as §1

[11] = top dose 1 µM, screen: GDSC drug entry 1218, top dose inferred
[12] = top dose 2.56 µM, screen: GDSC drug entry 163

Cell Line | AUC [1] | IC50 [1] | AUC [2] | IC50 [2] | AUC [3] | IC50 [3] | AUC [4] | IC50 [4] | AUC [5] | IC50 [5] | AUC [6, 11] | IC50 [6, 11] | AUC [6, 12] | IC50 [6, 12] | AUC [7] | IC50 [7] | AUC [8] | IC50 [8] | AUC [9] | IC50 [9] | AUC [10] | IC50 [10]
786-0 (kidney, adherent) | 0.399 | 677 nM | 0.945 | > 2560 nM | 0.679 | 1880 nM | 0.975 | > 2000 nM | 0.592 | 14 nM | 0.987 | > 1000 nM | 0.432 | 106 nM | 0.988 | > 1020 nM | 0.842 | 12400 nM | 0.978 | > 10000 nM | 0.021 | < 20 nM
A673 (rhabdomyosarcoma, adherent) | 0.467 | 1030 nM |  |  | 0.943 | > 10000 nM | 0.953 | > 2000 nM | 0.606 | 15.1 nM | 0.986 | > 1000 nM | 0.967 | > 2560 nM | 0.99 | > 1020 nM | 0.74 | 5560 nM | 0.986 | > 10000 nM | 0.024 | < 20 nM
DOK (head and neck, adherent) |  |  | 0.575 | 285 nM | 0.777 | 6290 nM | 0.974 | > 2000 nM | 0.957 | > 128 nM | 0.968 | > 1000 nM | 0.762 | 1390 nM | 0.918 | > 1020 nM | 0.976 | > 20000 nM | 0.97 | > 10000 nM |  | 
DU-145 (prostate, adherent) | 0.353 | 467 nM | 0.975 | > 2560 nM | 0.889 | > 10000 nM | 0.713 | 540 nM | 0.955 | > 128 nM |  |  |  |  | 0.948 | > 1020 nM | 0.782 | 9380 nM | 0.898 | > 10000 nM | 0.037 | < 20 nM
HCC-827 (lung adenocarcinoma, adherent) | 0.495 | 1210 nM |  |  | 0.889 | > 10000 nM | 0.858 | > 2000 nM | 0.972 | > 128 nM |  |  |  |  | 0.975 | > 1020 nM | 0.984 | > 20000 nM | 0.976 | > 10000 nM | 0.25 | 54 nM
HCT-116 (large intestine, adherent) |  |  | 0.981 | > 2560 nM | 0.883 | 9730 nM | 0.987 | > 2000 nM |  |  |  |  |  |  | 0.965 | > 1020 nM | 0.976 | > 20000 nM | 0.987 | > 10000 nM | 0.022 | < 20 nM
HT-29 (large intestine, adherent) | 0.374 | 562 nM |  |  | 0.933 | > 10000 nM | 0.988 | > 2000 nM | 0.725 | 34.8 nM | 0.986 | > 1000 nM | 0.511 | 171 nM | 0.922 | > 1020 nM | 0.975 | > 20000 nM | 0.988 | > 10000 nM | 0.067 | < 20 nM
HeLa (cervix, adherent) |  |  | 0.955 | > 2560 nM | 0.927 | > 10000 nM | 0.964 | > 2000 nM | 0.872 | 113 nM |  |  |  |  | 0.986 | > 1020 nM | 0.982 | > 20000 nM | 0.984 | > 10000 nM | 0.262 | 69.4 nM
JHU-029 (head and neck, adherent) |  |  | 0.9 | > 2560 nM | 0.807 | 6620 nM | 0.966 | > 2000 nM |  |  | 0.977 | > 1000 nM | 0.707 | 709 nM | 0.905 | > 1020 nM |  |  | 0.969 | > 10000 nM |  | 
KP-1N (pancreas, adherent) |  |  | 0.9 | > 2560 nM | 0.912 | > 10000 nM | 0.971 | > 2000 nM | 0.444 | 5.6 nM | 0.943 | > 1000 nM | 0.791 | 1210 nM | 0.964 | > 1020 nM |  |  | 0.964 | > 10000 nM |  | 
MCF7 (breast, adherent) | 0.9 | > 20000 nM | 0.822 | 1570 nM | 0.903 | > 10000 nM | 0.956 | > 2000 nM | 0.984 | > 128 nM |  |  |  |  | 0.986 | > 1020 nM | 0.986 | > 20000 nM | 0.965 | > 10000 nM | 0.541 | 415 nM
MDA-MB-231 (breast, adherent) |  |  | 0.956 | > 2560 nM | 0.772 | 4100 nM | 0.986 | > 2000 nM | 0.905 | > 128 nM |  |  |  |  | 0.978 | > 1020 nM | 0.959 | > 20000 nM | 0.984 | > 10000 nM | 0.041 | < 20 nM
MDA-MB-415 (breast, adherent) | 0.867 | > 20000 nM | 0.978 | > 2560 nM |  |  | 0.948 | > 2000 nM | 0.896 | > 128 nM | 0.964 | > 1000 nM | 0.826 | 2310 nM | 0.975 | > 1020 nM | 0.982 | > 20000 nM | 0.962 | > 10000 nM | 0.285 | 63.2 nM
MDA-MB-436 (breast, adherent) | 0.716 | 6070 nM | 0.978 | > 2560 nM | 0.87 | > 10000 nM | 0.974 | > 2000 nM | 0.958 | > 128 nM |  |  |  |  | 0.932 | > 1020 nM | 0.933 | > 20000 nM | 0.976 | > 10000 nM | 0.18 | 25.6 nM
MDA-MB-453 (breast, adherent) | 0.134 | < 78.1 nM | 0.983 | > 2560 nM |  |  | 0.978 | > 2000 nM | 0.765 | 51.9 nM | 0.984 | > 1000 nM | 0.666 | 490 nM | 0.964 | > 1020 nM | 0.966 | > 20000 nM | 0.974 | > 10000 nM | 0.037 | < 20 nM

The IC50 comes from the fitted curve, where viability falls to half of the control; a fit beyond the top or the lowest dose is shown as a bound at that dose. The AUC spans the tested range (256-fold, ending at the top dose) of the same fit; it is 1 without any effect and falls as sensitivity rises. For some assays here: Any top dose called inferred was calculated from the reported fits. For some assays here: Drugs with an entry number were screened twice under separate entries, and the two screens often disagree.
